The supplement of paper PMC4967469
Lines with a small IC50 respond at low doses; a limit (>, <) means that the fit lies beyond the doses tested. AUC, from the same fit, is the share of area under the viability curve across the 256-fold dose range; the more sensitive the line, the further below 1. For part of these data: The top dose, if marked as inferred, was derived from the fitted curves, not read from the paper.

What was measured:
Experiment in all cases: Viability of human cancer cell lines after 72 h of drug (GDSC screen)
QL-XI-92 = compound: C=CC(=O)Nc1cc(NC(=O)c2ccc(C)c(NC(=O)c3ccno3)c2)cc(C(F)(F)F)c1 [QL-XI-92]; settings: top dose 10.24 µM; top dose inferred
Experimental: (§1)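 Human cancer cell lines in 384-well plates, medium with 10% serum, drug for 72 h over a 256-fold dose range (nine 2-fold or five 4-fold steps up to the top dose). Adherent lines were fixed and stained with the nucleic acid dye Syto60, suspension lines read with resazurin; signal relative to control wells, capped at 0 and 100%. One two-parameter sigmoid per drug and line, fitted in a mixed model over all curves with the slope shared within a line.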

Phenformin = compound: N=C(N)NC(=N)NCCc1ccccc1 [Phenformin]; settings: top dose 4000 µM; top dose inferred
Experimental: as §1

Erlotinib = compound: C#Cc1cccc(Nc2ncnc3cc(OCCOC)c(OCCOC)cc23)c1 [Erlotinib]; settings: top dose 2 µM
Experimental: as §1

XL-184 = compound: COc1cc2nccc(Oc3ccc(NC(=O)C4(C(=O)Nc5ccc(F)cc5)CC4)cc3)c2cc1OC [XL-184]; settings: top dose 5.12 µM; top dose inferred
Experimental: as §1

Gefitinib = compound: COc1cc2ncnc(Nc3ccc(F)c(Cl)c3)c2cc1OCCCN1CCOCC1 [Gefitinib]; settings: top dose 0.5 µM
Experimental: as §1

S-Trityl-L-cysteine = compound: N[C@@H](CSC(c1ccccc1)(c1ccccc1)c1ccccc1)C(=O)O [S-Trityl-L-cysteine]; settings: top dose 5.12 µM; top dose inferred
Experimental: as §1

EHT 1864 = compound: O=c1cc(CN2CCOCC2)occ1OCCCCCSc1ccnc2cc(C(F)(F)F)ccc12 [EHT 1864]; settings: top dose 10 µM; top dose inferred
Experimental: as §1

NU-7441 = compound: O=c1cc(N2CCOCC2)oc2c(-c3cccc4c3sc3ccccc34)cccc12 [NU-7441]; settings: top dose 2 µM; top dose inferred
Experimental: as §1

AG-014699 = compound: CNCc1ccc(-c2[nH]c3cc(F)cc4c3c2CCNC4=O)cc1 [AG-014699]; settings: top dose 5 µM; top dose inferred
Experimental: as §1

WHI-P97 = compound: COc1cc2ncnc(Nc3cc(Br)c(O)c(Br)c3)c2cc1OC [WHI-P97]; settings: top dose 10.24 µM; top dose inferred
Experimental: as §1

Vinorelbine = compound: CCC1=C[C@@H]2CN(C1)Cc1c([nH]c3ccccc13)[C@@](C(=O)OC)(c1cc3c(cc1OC)N(C)[C@H]1[C@@](O)(C(=O)OC)[C@H](OC(C)=O)[C@]4(CC)C=CCN5CC[C@]31[C@@H]54)C2 [Vinorelbine]; settings: top dose 0.064 µM; top dose inferred
Experimental: as §1

Cell Line	AUC (QL-XI-92)	IC50 (QL-XI-92)	AUC (Phenformin)	IC50 (Phenformin)	AUC (Erlotinib)	IC50 (Erlotinib)	AUC (XL-184)	IC50 (XL-184)	AUC (Gefitinib)	IC50 (Gefitinib)	AUC (S-Trityl-L-cysteine)	IC50 (S-Trityl-L-cysteine)	AUC (EHT 1864)	IC50 (EHT 1864)	AUC (NU-7441)	IC50 (NU-7441)	AUC (AG-014699)	IC50 (AG-014699)	AUC (WHI-P97)	IC50 (WHI-P97)	AUC (Vinorelbine)	IC50 (Vinorelbine)
D-336MG (glioma, adherent)	0.903	> 10.2 µM	0.703	1110 µM	0.969	> 2 µM	0.853	> 5.12 µM	0.965	> 0.5 µM	0.898	> 5.12 µM	0.938	> 10 µM	0.938	> 2 µM	0.963	> 5 µM	0.97	> 10.2 µM	0.816	0.0489 µM
DG-75 (Burkitt lymphoma, suspension)	0.977	> 10.2 µM	0.666	730 µM	0.987	> 2 µM	0.987	> 5.12 µM	0.973	> 0.5 µM	0.859	4.35 µM	0.914	> 10 µM	0.861	1.73 µM	0.928	> 5 µM	0.982	> 10.2 µM	0.886	> 0.064 µM
DJM-1 (skin, adherent)	0.988	> 10.2 µM	0.989	> 4000 µM	0.906	> 2 µM	0.965	> 5.12 µM	0.974	> 0.5 µM	0.786	2.19 µM	0.98	> 10 µM	0.981	> 2 µM	0.987	> 5 µM	0.933	> 10.2 µM	0.72	0.0167 µM
DMS-79 (small cell lung carcinoma, suspension)	0.983	> 10.2 µM	0.823	2880 µM	0.947	> 2 µM	0.981	> 5.12 µM	0.985	> 0.5 µM	0.879	> 5.12 µM	0.924	> 10 µM	0.983	> 2 µM	0.941	> 5 µM	0.987	> 10.2 µM	0.953	> 0.064 µM
EB2 (Burkitt lymphoma, suspension)	0.836	5.91 µM	0.612	493 µM	0.987	> 2 µM	0.83	2.81 µM	0.967	> 0.5 µM	0.973	> 5.12 µM	0.976	> 10 µM	0.99	> 2 µM	0.99	> 5 µM	0.883	9.13 µM	0.591	0.00694 µM
EB-3 (Burkitt lymphoma, suspension)	0.821	7.21 µM	0.549	348 µM	0.98	> 2 µM	0.897	> 5.12 µM	0.974	> 0.5 µM	0.889	> 5.12 µM	0.942	> 10 µM	0.984	> 2 µM	0.977	> 5 µM	0.894	> 10.2 µM	0.895	> 0.064 µM
EJM (lymphoid neoplasm, semi-adherent)	0.976	> 10.2 µM	0.569	374 µM	0.99	> 2 µM	0.967	> 5.12 µM	0.988	> 0.5 µM	0.921	> 5.12 µM	0.969	> 10 µM	0.981	> 2 µM	0.992	> 5 µM	0.953	> 10.2 µM	0.747	0.0177 µM
EM-2 (chronic myeloid leukaemia, suspension)	0.642	1.67 µM	0.763	1620 µM	0.976	> 2 µM	0.63	0.768 µM	0.981	> 0.5 µM	0.9	> 5.12 µM	0.959	> 10 µM	0.98	> 2 µM	0.982	> 5 µM	0.964	> 10.2 µM	0.781	0.0302 µM
ES8 (Ewing sarcoma, adherent)	0.916	> 10.2 µM	0.787	1610 µM	0.98	> 2 µM	0.872	4.26 µM	0.985	> 0.5 µM	0.59	0.555 µM	0.898	> 10 µM	0.976	> 2 µM	0.839	3.07 µM	0.938	> 10.2 µM	0.369	0.00179 µM
ES-2 (ovary, adherent)	0.991	> 10.2 µM	0.551	339 µM	0.987	> 2 µM	0.879	4.17 µM	0.991	> 0.5 µM	0.836	2.83 µM	0.985	> 10 µM	0.981	> 2 µM	0.99	> 5 µM	0.991	> 10.2 µM	0.975	> 0.064 µM
ETK-1 (biliary tract, adherent)	0.938	> 10.2 µM	0.819	2670 µM	0.897	> 2 µM	0.914	> 5.12 µM	0.853	0.474 µM	0.704	1.31 µM	0.973	> 10 µM	0.958	> 2 µM	0.918	> 5 µM	0.953	> 10.2 µM	0.556	0.00582 µM
EW-11 (Ewing sarcoma, adherent)	0.902	> 10.2 µM	0.58	441 µM	0.947	> 2 µM	0.886	> 5.12 µM	0.933	> 0.5 µM	0.959	> 5.12 µM	0.974	> 10 µM	0.965	> 2 µM	0.777	2.63 µM	0.933	> 10.2 µM	0.788	0.0372 µM
